Experimental data taken from the supplement of paper PMC11417369.
± gives the standard deviation of the averaged measurements. The list shows a part of the results.

tested on: PfAP2-LT AP2 domain (GST-tagged); assay: gcPBM binding intensity (ln(normalized median fluorescence intensity)); higher = stronger DNA binding
In short: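 An Agilent 4 × 180k array carrying primer-extended double-stranded 36-bp intergenic genomic probes and negative controls received GST-tagged P. falciparum DNA-binding domains expressed in E. coli, about 25 μg on average, for 1 h. The binding buffer contained 1× PBS, 1% milk, 0.2 mg/ml BSA, 0.5% salmon testes DNA and 0.03% Triton X-100. Binding intensity is the top Masliner-normalised natural-log median intensity across replicate spots of either probe orientation, read after Alexa488 anti-GST antibody staining and a 488 nm scan.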

Point of comparison: AGTGTGTGTAATAAAGTGCATTAAAAATGACACGTA, “gcPBM binding intensity (ln)” value 9.65 ± 0.22. Against it:
- TTCTTATCAAGAGAAAGTACATAAAAAATTAATAAG [XGTACX_site1821] — lower, 8.39 ± 0.49
- CCAACAAAAATAAGCACACACAAATATACATACATA [CACACA_site3606] — within error, 9.62 ± 0.45
- CATGCAATATTAAACACACACTCATATAGCACAATA [CACACA_site6182] — within error, 9.37 ± 0.45
- TTGGATTTTCCATAATGTACACATAAAAGTGTTACA [XGTACX_site4544] — lower, 8.46 ± 0.38
- TAATATAGTATAGTATGTACATATAATTAGAATATT [XGTACX_site4053] — within error, 8.96 ± 0.63
- TGGTATATATTTCCTTGTACATATAATATATATTGT [XGTACX_site3961] — within error, 8.94 ± 0.51
- ATATATATATATATATGTACATATTTTAATAATTAA [XGTACX_site8549] — lower, 9.18 ± 0.12
- CGCGCACACGGACACACACACACACGGATATAAATA [CACACA_site7102] — within error, 10 ± 0.4
- TGTTGTTACATATATACACACATATATATATTATAT [CACACA_site2397] — within error, 9.11 ± 0.4
- TCTTGACGAAGTAGAAGGATATATATATAAAAAAAA [CACACA_negctrl_site641] — lower, 8.63 ± 0.54
- TCCAGGTATTTATTCTGTACACATAAAACATTTTAT [XGTACX_site8472] — lower, 8.77 ± 0.46
- TCGTCTCTTCTTGTTCTGTTTTAGAAGGCTATATAT [CACACA_negctrl_site180] — lower, 8.88 ± 0.44
- AGGAGGTCAGTTCACAGTACCCAGAAAACTCTACGA [XGTACX_site1992] — lower, 8.61 ± 0.52
- TATTAAAGGGGTTTCACACACATGTATAATTAATTT [CACACA_site200] — within error, 9.04 ± 0.45
- AATTTGTTATGTATATGTACATAAATAGATATATGA [XGTACX_site3930] — lower, 8.8 ± 0.49
- AACCATATTTAGATTACACACAGTTTAAATATTTTA [CACACA_site6712] — lower, 8.78 ± 0.42
- AATATGAACAGACACACACACACAAAAAAAAAAAAA [CACACA_site2012] — within error, 9.9 ± 0.56
- TTATGAAAAATAAAATTAGAAAAAAAGGAAAATGAA [XGTACX_negctrl_site232] — lower, 8.49 ± 0.35
- TTTCTTAAATATATTGAGGAATAAAAAGAAGAAAAG [GTGCAC_negctrl_site281] — lower, 8.33 ± 0.4
- AAAAAATTATAAAAGTGTACATATATATATATATAT [XGTACX_site154] — within error, 9.42 ± 0.13
- AGGTTACATAGATTTTGTACATATATATTATTTTTT [XGTACX_site3040] — lower, 8.78 ± 0.48
- AATACAAATATATACACACATACATACATACATATA [CACACA_site3147] — within error, 9.43 ± 0.39
- ATATATATATGTTACTGTACTAATTTATATGTTAAT [XGTACX_site3341] — lower, 8.96 ± 0.39
- TAGTTTTCTTAAAGATGTACATTTTAAAAATAATCT [XGTACX_site255] — lower, 8.29 ± 0.42
- TAGATATATAATTTGCGTACACAAATAATATATTTT [XGTACX_site6397] — lower, 8.61 ± 0.41
- ATACACATATGTTAATGTACACATATATAATATTTA [XGTACX_site163] — lower, 8.76 ± 0.47
- TTATGGTTTAAATAAAGTACAAATAAATAAATATAT [XGTACX_site5777] — lower, 8.66 ± 0.38
- CACAAAAATAGACACACACACATATAGATTTATTAT [CACACA_site7676] — within error, 9.62 ± 0.36
- TTTATTTATTACAATTTTTGAATCACCACACAGTCG [GTGCAC_negctrl_site413] — lower, 8.68 ± 0.58
- ATCATGTTATATACATGTACATATATATATATATAT [XGTACX_site1329] — within error, 9.38 ± 0.57
- TATTTATTTATGTGTTGTACAAATAAATAGAGGTAT [XGTACX_site6408] — lower, 8.85 ± 0.26
- ATATATTAAAAACGATGTACCCTGAACTAAAAAAAA [XGTACX_site4986] — lower, 8.65 ± 0.47
- TATATGAAAATGTTCATACACACATAAAAAAAAAAA [CACACA_site3237] — lower, 8.86 ± 0.57
- CATATTTCTTTATTGGCACACATTTTTTCAATTATA [CACACA_site1618] — within error, 8.99 ± 0.52
- TGTTATTACTTTATATCATCTTAAAATAAGCATATT [CACACA_negctrl_site1501] — lower, 8.43 ± 0.47
- AAAAAAAAAAAAAACACACACAAATTTAATCTATAT [CACACA_site6894] — within error, 9.31 ± 0.51
- TGAAATAAATAATGCACACTCTACAGATATACGTAT [CACACA_site5270] — lower, 9.01 ± 0.31
- TTGAAAATACAAAATTGTACAAAGATTTAAATAAAA [XGTACX_site1182] — lower, 8.7 ± 0.49
- CGCATACACAGACACACACACACATATAAATATGTA [CACACA_site6444] — within error, 9.98 ± 0.47
- AATTTTTTATTAAACACACAAACATATATATATATA [CACACA_site1937] — lower, 9.29 ± 0.085
- TATACCTATAGACACACACACATATAGATTTATATA [CACACA_site7124] — within error, 9.61 ± 0.4
- TTCATTCAAATTAACGTGCACATTATTAGTAAAAAC — lower, 8.6 ± 0.42
- TTATATAATTTAATAGTGCAATTATATTAATTTTTC — lower, 8.39 ± 0.49
- GTTCATACTTAATATTGTACTTTTCATGTAGTGTAT [XGTACX_site6613] — lower, 9.01 ± 0.38
- TAACATATTTTTAATACACACTCAAAAAAGTACTTA [CACACA_site5638] — lower, 8.49 ± 0.4
- AAATAAATATTTATATGTACATATATTTTATAATAC [XGTACX_site7041] — lower, 8.72 ± 0.46
- TACAAATATATATGCACACACATATACATACATATA [CACACA_site2182] — within error, 9.34 ± 0.32
- TATTAGATATAATATATACACACCAACGAACGAAGA [CACACA_site1134] — within error, 9.14 ± 0.33
- TTTATCCAATAATCTGGTACACAATAATCATTCATG [XGTACX_site6192] — lower, 8.63 ± 0.47
- TTTTTTTACTTAATAGTTCAACATATATCTCAATGT [CACACA_negctrl_site620] — lower, 8.64 ± 0.53
- TTTCTATTTATTTCAAGTACTAAAAATATATATAAC [XGTACX_site8203] — lower, 8.29 ± 0.49
- ATTCATATATACTTCACACACATTTTATCATTCAAA [CACACA_site2468] — within error, 9.21 ± 0.45
- TTTTTGTGCATTGATTGTACTTTCTAGGATTATTAA [XGTACX_site7070] — lower, 8.71 ± 0.38
- TTTTTTTTTTTGATGGTGCAATATATTAAATAGAAA — lower, 8.19 ± 0.41
- TATATATATATATAAAGTACATATAATATATATTTG [XGTACX_site5412] — lower, 8.93 ± 0.11
- TTTTTTCATTATATATAGTATGCAAGTCAAATTAAT [GTGCAC_negctrl_site207] — lower, 8.45 ± 0.48
- AAAAAAAAAAAAAACATACACACATTGAACTTTTAT [CACACA_site3251] — lower, 8.97 ± 0.4
- CTATAAAAATATAATTGTACAAATTTTTATATCTTA [XGTACX_site7722] — lower, 8.35 ± 0.45
- ACAAAATTTACAAAATGTACAAAATTTACAAAATAT [XGTACX_site3542] — lower, 8.8 ± 0.51
- GAAAACGTCTTTAATAGTACACAGTTAAAAAATACA [XGTACX_site8976] — lower, 8.55 ± 0.4
- GAAATTATGTAAAAAAGTACTAACATACATATATAT [XGTACX_site1794] — lower, 8.81 ± 0.42
- TCATATAACACTTGATGTACAAGAATCCAAGTTGCA [XGTACX_site8758] — lower, 8.74 ± 0.24
- ATATGTATAATATATATATATATATATATATATATA [CACACA_negctrl_site623] — within error, 9.52 ± 0.21
- TTAAAATAGATAAATAGTACTCTTTCCATTATGTAA [XGTACX_site6299] — lower, 8.43 ± 0.51
- TATATAATAAGATATGCATGCACATGTAAAATGAAT [TGCATGCA_site499] — within error, 9.26 ± 0.31
- ATAATGTTTTATAATACACACATTAGATATATAAAT [CACACA_site7834] — lower, 8.87 ± 0.38
- GTGATAAATATTATATGTACATATAATATTTATGTC [XGTACX_site8023] — lower, 8.87 ± 0.3
- TTGAACCTGATAAATACACACAATATATATTTTTTT [CACACA_site2173] — lower, 8.78 ± 0.44
- CCATTCTTACTTTATTGTACTTGAAAATTTTTTTTA [XGTACX_site6160] — lower, 8.77 ± 0.51
- TCAAAAACGAGACATGCATGCAATTCATTTTGATTC [TGCATGCA_site212] — lower, 9.02 ± 0.24
- TAAATACTTTTATGTACACACATATAGATATATATT [CACACA_site5416] — lower, 8.94 ± 0.36
- TCAAACGGTTAAATATGTACATATATATATATATAT [XGTACX_site2339] — within error, 9.695 ± 0.0071
- AAAAAAAAAAGACACACACACATATAAATATAAATA [CACACA_site6899] — within error, 9.81 ± 0.26
- ACTCATAAAAATAGATGTACTTTAATAATTTGATTT [XGTACX_site8763] — lower, 8.48 ± 0.52
- GTACATACATAAAACACACACATATAGATTTATATA [CACACA_site6945] — within error, 9.47 ± 0.33
- ACCCACTTTTGAGGTGTGCACAATAAATTGGACATT — lower, 9.01 ± 0.35
- ATATATATTTAAACTACACACGCATATCTTAGAAAT [CACACA_site8348] — lower, 8.96 ± 0.35
- TAAGAGATATTTTATTAAATGTTTTATGAATCATGT [TGCATGCA_negctrl_site264] — lower, 8.38 ± 0.38
- AGGAAAAAAAAAATGACACACATATTTGAATTAAAA [CACACA_site1352] — lower, 8.82 ± 0.55
- TATTAATAAAAGCATTGTACAGTAATAAATAAATAA [XGTACX_site2924] — lower, 8.69 ± 0.42
- TATATATATAAACACACACACACCAAAGCGTAGCGC [CACACA_site7903] — within error, 9.8 ± 0.17
- AGCCATTAATTCTCTACACACCTTTATGTTATTTAG [CACACA_site3635] — within error, 9.15 ± 0.4
- ATATTAAAATGAAAATATAAAAAAAAAAAAAAAAAA [CACACA_negctrl_site1559] — lower, 8.21 ± 0.48
- CAATCAAATAGACACACACACACCTAAACATAAAAG [CACACA_site7322] — within error, 10.2 ± 0.4
- AAGGAAATATAATATACACACATAAGTGTACTTCTA [CACACA_site6079] — lower, 9.04 ± 0.3
- TTGTATTCATAACAACGTACATATTTTGTAACTAAA [XGTACX_site4029] — lower, 8.48 ± 0.34
- TTTCAAACAAAAAGACGTACACTGAAGTTATCCGTC [XGTACX_site8824] — lower, 8.62 ± 0.52
- AAATTCATATGAATTTGTACGGACATAAATATCTTC [XGTACX_site1838] — lower, 8.85 ± 0.35
